Laboratory results from PubChem BioAssay AID686978 (National Center for Advancing Translational Sciences (NCATS), 2013).
The campaign covered roughly 420,000 compounds. About 64,000 (15%) were called active. Inconclusive means that the source gave no clear call. Such entries were picked first, then a sample of the others. Calls come from the whole dose curve; as a rule, active = well fitted inhibition curve with a large enough effect; inconclusive = small, poorly fitted or top-dose-only effect; inactive = flat fitted curve, though single readings scatter. Potencies of inconclusive entries are left out as doubtful fits.

Assay: qHTS for Inhibitors of human tyrosyl-DNA phosphodiesterase 1 (TDP1): qHTS in cells in absence of CPT; note: nearly all actives have a fitted effect of over 55% in size
Settings: DT40 Tdp1-/- hTDP1 cells, no CPT, ATP luminescence, 48 h; activity change, negative = growth inhibition: at 46.2 µM (top of the series) unless noted
Method in brief: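 Compound effects on proliferation are scored in DT40 Tdp1-/-;hTDP1 cells in the absence of CPT. ATP levels (CellTiter-Glo luminescence) are recorded after a ≥48 hr, 37 °C incubation.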
% is set by controls: 0 for no effect and ±100 for the full control effect; potency is the fitted concentration of half-maximal effect; tags give direction and shape of the fitted curve.

Row | Compound | Potency | activity change, negative = growth inhibition
1 | COc1ccccc1NC(=O)c1ccccc1NC(=O)c1cc(Cl)ccc1NC(=O)c1ccco1 | inconclusive [inhibitor, partial curve] | 
2 | Fc1ccc(-c2nn(-c3ccc(Cl)cc3)c3c2cnc2ccc(F)cc23)cc1 |  | inactive: -3.92%
3 | COc1ccc(-c2cnc3c(NC(C)=O)cc(-c4cccc(C(=O)NCCN(C)C)c4)cn23)cc1OC | active: 11.6 µM | 
4 | CN1C2CCC1/C(=C/c1cccn1C)C(=O)/C2=C\c1cccn1C | active: 16.4 µM | 
5 | Cc1nn(-c2ccccc2)c(Cl)c1C(=O)NNC(=O)c1ccncc1 |  | inactive: -2.47%
6 | COc1ccc(CC(=O)Nc2ccc(N3CCOCC3)cc2)cc1OC | inconclusive [inhibitor, single point] | 
7 | C#CCNC(=O)C[C@@H]1C[C@@]2(C(=O)OC)CCCCC=C2N(Cc2ccccc2)C1=O |  | inactive: -26.9%
8 | COc1ccccc1N1CCN(S(=O)(=O)c2c(C)sc3ncn(CC(=O)Nc4ccc(C)cc4Br)c(=O)c23)CC1 |  | inactive: -4.57%
9 | CC(=O)Oc1ccc2c(c1)CCC1C2CC[C@]2(C)C(=O)CCC12 (some centres undefined) |  | inactive: -8.73%
10 | Cc1ccc(Nc2sc(C(=O)c3ccc(F)cc3)c(N)c2S(=O)(=O)c2ccc(C)cc2)cc1 | inconclusive [inhibitor, partial curve] | 
11 | Cc1ccc(S(=O)(=O)c2nnn3c2nc(N2CCOCC2)c2sccc23)cc1C | inconclusive [inhibitor, single point] | 
12 | CCNS(=O)(=O)c1ccc(CCC(=O)Nc2ccccc2C(=O)OC)cc1 | inconclusive [inhibitor, single point] | 
13 | CCNC(=O)C1(C)CCN(C(=O)c2c(-c3ccccc3)noc2C)C1 (centres undefined) |  | inactive: -1.57%
14 | O=C(N=C1N=C2C=CC=CN2Cc2ccccc21)c1ccc(S(=O)(=O)N2CCCC2)cc1 | inconclusive [inhibitor, single point] | 
15 | Cc1ccc(NC(=O)C2CCCN(S(=O)(=O)c3ccc4c(c3)oc(=O)n4C)C2)nc1 (centres undefined) | inconclusive [inhibitor, single point] | 
16 | Cc1ccc([N+](=O)[O-])cc1N=Nc1c(-c2ccc([N+](=O)[O-])cc2)[nH]n(C(N)=S)c1=O | active: 2.91 µM | 
17 | CC(=O)Oc1ccc(N(C(C)=O)S(=O)(=O)c2ccccc2)c2ccccc12 | inconclusive [inhibitor, single point] | 
18 | Cc1ccc(NC(=O)c2ccc(NCC3CCCO3)c([N+](=O)[O-])c2)cc1Cl (centres undefined) |  | inconclusive: -30.7% [inhibitor]
19 | Cc1ccc(C)c(CN2C(=O)c3ccccc3S(=O)c3ccc(C(=O)N4CCOCC4)cc32)c1 (centres undefined) |  | inactive: -28.2%
